Reference: PubChem BioAssay AID1030 (National Center for Advancing Translational Sciences (NCATS), 2008)
Hit rate of the full screen: of about 220,000 compounds, about 16,000 (7.3%) were called active. The shares of active, inactive and inconclusive entries below differ from those in the screen. The call rests on the fitted dose curve; in most records, active means well fitted inhibition curve with a large enough effect (not every such curve was filed as active); inconclusive means small, poorly fitted or top-dose-only effect, or another doubt; inactive means no such curve, though single readings can be large or run the other way. A potency beside an inconclusive call is a rough fit, not a confirmed value.

What follows are compounds tested against Aldehyde dehydrogenase 1A1 (Homo sapiens) (UniProt P00352) (assay: qHTS Assay for Inhibitors of Aldehyde Dehydrogenase 1 (ALDH1A1)). Details: Purified ALDH1A1, NADH fluorescence, propionaldehyde substrate; series mostly up to 75.3 µM; activity, negative = inhibition: at the top concentration.
Chain of UniProt P00352 (P00352 whole entry, looked up): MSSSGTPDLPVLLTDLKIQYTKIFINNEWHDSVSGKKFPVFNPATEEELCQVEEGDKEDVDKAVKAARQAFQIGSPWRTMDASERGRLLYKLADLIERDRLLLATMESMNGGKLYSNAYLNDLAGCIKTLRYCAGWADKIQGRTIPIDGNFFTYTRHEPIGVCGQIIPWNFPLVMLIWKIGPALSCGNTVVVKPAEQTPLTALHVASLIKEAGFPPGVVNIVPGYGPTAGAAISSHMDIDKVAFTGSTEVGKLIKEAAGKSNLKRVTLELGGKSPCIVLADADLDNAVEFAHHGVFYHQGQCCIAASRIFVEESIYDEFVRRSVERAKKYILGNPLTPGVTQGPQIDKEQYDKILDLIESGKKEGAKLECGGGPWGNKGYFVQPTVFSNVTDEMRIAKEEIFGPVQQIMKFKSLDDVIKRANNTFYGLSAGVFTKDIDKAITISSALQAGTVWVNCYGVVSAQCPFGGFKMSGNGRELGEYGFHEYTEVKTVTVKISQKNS
Potency means the concentration at half of the fitted maximal effect; tags describe the fitted curve by direction and shape.
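Wherever activity, negative = inhibition is given: plate controls were no enzyme wells and a reference inhibitor.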

Potency, inconclusive:
COc1ccc(NC(=O)CSc2nnc(-c3ccccc3)n2Cc2ccco2)c(OC)c1 39.8 µM [inhibitor, single point], N#CC1=C2SCN(Cc3ccco3)CN2C(=O)CC1c1cccc2ccccc12 (stereo not drawn) 10 µM [inhibitor, partial curve], O=c1cc(/N=C/c2coc3c(ccc4ccccc43)c2=O)[nH]c(=S)[nH]1 8.91 µM [inhibitor, partial curve], Cc1ccc(-c2nn3c(C)nnc3s2)cc1NC(=O)c1ccc(-c2cccc(Cl)c2)o1 3.55 µM [inhibitor, full curve], COc1cccc(/C(O)=C/c2nc3ccc(C(=O)NCCc4ccc(Cl)cc4)cc3[nH]c2=O)c1 31.6 µM [inhibitor, single point], Cc1ccc(SCCC(=O)NCCSCc2ccccc2C)cc1 3.55 µM [inhibitor, full curve], Cc1ccc(NC(=O)Cn2c(/C=C/c3ccccc3)nc3ccccc32)cc1C 22.4 µM [inhibitor, partial curve], CCc1ccc(C(c2c(C)nn(-c3ccccc3)c2N)c2c(C)nn(-c3ccccc3)c2N)cc1 39.8 µM [inhibitor, single point], O=C(Nc1ccc(Cl)cc1)Nc1ccccc1C(=O)O 39.8 µM [inhibitor, single point], COC(=O)CC1=NN(c2ccccc2)C(=O)C1 0.1 µM [inhibitor, full curve], Cc1cccc(-c2nc3ccccc3c3nncn23)c1 3.55 µM [inhibitor, single point], CCN(CCNc1ccc(Cl)cc1[N+](=O)[O-])C(=O)c1cc([N+](=O)[O-])c(N(C)C)cc1OC 39.8 µM [inhibitor, single point], COc1cccc(Nc2ncc3nc(C)c(=O)n(-c4ccccc4)c3n2)c1 39.8 µM [inhibitor, single point], Cc1cc(NC(=O)CSc2nnc(-c3ccc(Br)o3)n2Cc2ccccc2)no1 22.4 µM [inhibitor, partial curve], COc1ccc(NC(=O)CSc2nc(N)c3cc4c(nc3n2)CCCC4)cc1 17.8 µM [inhibitor, partial curve], CN1CCN(C(=O)C2=C[C@H](C3CCCCC3)C[C@H](OCc3ccc(CO)cc3)O2)CC1 15.8 µM [inhibitor, partial curve], O=C(Nc1ccccc1F)c1cc(S(=O)(=O)N2CCCCC2)cs1 39.8 µM [inhibitor, single point], CN(C(=O)c1ccncc1)C1CC(C)(C)N(O)C(C)(C)C1 37.7 µM [inhibitor, single point], Cc1ccc(/C=C(\C#N)c2nn(-c3ccccc3)c(N)c2C#N)cc1 31.6 µM [inhibitor, partial curve], CC1=CC(c2ccccc2)n2nc(N3C(=O)C4CC=CCC4C3=O)nc2N1 (stereo not drawn) 28.2 µM [inhibitor, partial curve], COc1ccc(-c2cc(-c3ccccc3)nc(N3CCCC3)n2)cc1OC 28.2 µM [inhibitor, partial curve], CCOC(=O)c1cnc(SC)nc1NCCOC 39.8 µM [inhibitor, single point], FC(F)(F)C1=CC(c2ccccc2)=NCCN1 25.1 µM [inhibitor, single point], Cc1sc2ncnc(SCC#N)c2c1C 35.5 µM [inhibitor, single point], Cc1nn(-c2ccccc2)cc1C(=S)Nc1ccccc1 44.7 µM [inhibitor, single point], O=C(CN1CCN(Cc2ccccc2)CC1)Nc1ccc(S(=O)(=O)N2CCOCC2)cc1 37.7 µM [inhibitor, single point], C/C(=N\Nc1ccc([N+](=O)[O-])cc1)c1ccc(N)cc1 39.8 µM [inhibitor, single point], CC(=O)N1CCC[C@@]2(CCN(Cc3nccs3)C2)C1 39.8 µM [inhibitor, single point], O=C(/C=C\c1cccs1)c1c(O)ccc2ccc(=O)oc12 22.4 µM [inhibitor, single point], Cc1csc(NC(=O)CCN2C(=O)c3ccccc3S2(=O)=O)n1 39.8 µM [inhibitor, single point], Nc1ccc(N2CCN(CCCCN3C(=O)C4CCCN4C3=O)CC2)cc1 (stereo not drawn) 31.6 µM [inhibitor, single point], [O-]C1=N/[N+](=C/c2ccc(Cl)c(Cl)c2)CC1 39.8 µM [inhibitor, single point], N#Cc1c(C(F)(F)F)cc(C2CC2)[nH]c1=O 31.6 µM [inhibitor, partial curve], CCOC(=O)c1c(NC(=O)c2ccnn2C)sc(C)c1C 35.5 µM [inhibitor, single point], CCC1C/C(=C\c2cccnc2)C(=O)/C(=C/c2cccnc2)C1 (stereo not drawn) 35.5 µM [inhibitor, single point], Clc1ccc(Cl)c(-c2ccc(/C=N/c3ncn[nH]3)o2)c1 37.7 µM [inhibitor, single point], COc1ccc(-c2nc(CS(=O)CC(=O)NCc3ccc(Cl)cc3)c(C)o2)cc1 (stereo not drawn) 22.4 µM [inhibitor, single point], O=C(Nc1ccncc1)c1cn(-c2ccccc2)nc1-c1cccs1 25.1 µM [inhibitor, partial curve], COc1ccc(/C=N\NC(=O)c2c(C)nc3ccc(Br)cn23)cc1 25.1 µM [inhibitor, partial curve], O=C([C@H](Cc1ccccc1)NS(=O)(=O)c1ccc(Cl)cc1)N1CC[C@@]2(O)CCCC[C@H]2C1 14.1 µM [inhibitor, partial curve, poor fit], O=C(Cc1cccs1)OCC(=O)c1ccco1 39.8 µM [inhibitor, single point], N#C/C(=C\C1=C(N2CCOCC2)C(=C\c2ccccc2)/CC1)C(=O)Nc1ccccc1F 11.2 µM [inhibitor, partial curve], CCCCn1nnc(NC(=O)c2ccc(-c3ccccc3[N+](=O)[O-])o2)n1 39.8 µM [inhibitor, single point]

Potency, active:
O=C(Nc1ccccc1)c1ccc(N2CCN(c3ccccn3)CC2)c(S(=O)(=O)N2CCOCC2)c1 28.2 µM, CCOC(=O)N1CCC(N2C(=O)c3ccccc3C2Nc2ccc(S(=O)(=O)N(CC)CC)cc2)CC1 (stereo not drawn) 0.199 µM, CCOc1ccc(NC(=S)Nc2cc(C)[nH]n2)cc1 14.1 µM, CCc1nc(N[C@H](C(=O)O)C(C)CC)c2oc3ccccc3c2n1 (stereo partly drawn) 0.501 µM, C[n+]1cc[nH]c1SCC(=O)c1ccc(Cl)cc1 18.9 µM, COc1cc2c(=O)n(Cc3ccccc3)c(=O)n(CC(=O)NCc3ccco3)c2cc1OC 1.41 µM, O=C(COC(=O)c1ccc([N+](=O)[O-])s1)NC(=O)NCc1ccccc1 7.08 µM, CC(C)c1ccc(/C=N/NC(=O)c2nnn(-c3nonc3N)c2CSC2=NCCS2)cc1 20 µM, CCC(C)c1ccccc1NC(=O)COC(=O)c1ccc(C)c(NC(=O)c2ccco2)c1 (stereo not drawn) 39.8 µM, CC(C)(C)NC(=O)C(c1ccncc1)N(Cc1cccs1)C(=O)Cn1nnc(-c2cccs2)n1 (stereo not drawn) 4.47 µM

activity, negative = inhibition, inactive:
C/C(=N\NC(=O)c1cccnc1)c1ccc(-c2ccccc2)cc1 17.9%, CC(C)CO/N=C1/C[C@@H](O)[C@@H](O)[C@@H]2[C@@H]3C(=O)N([C@@H](C)c4ccccc4)C(=O)[C@H]3CC[C@@H]12 7.8% [at 13.5 µM], COc1cc(NC(=S)N2CCCC(CO)C2)c(OC)cc1Cl (stereo not drawn) 5.02%, COC(=O)C1=C(C(=O)OC)[C@@H]2N(C)c3ccc(OC)cc3[C@@]23C[C@@H](C(=O)OC)N(S(=O)(=O)c2ccc(C(F)(F)F)cc2)C3=N1 9.1% [at 13.5 µM], CCCOc1ccc(OCCOCCN2CCc3ccccc3C2)cc1 2.17%, O=C(NC1CCCCC1)c1cc(-c2ccccn2)nc2ccccc12 -5.08%, CC(Sc1n[nH]c(N)n1)C(=O)Nc1cccc(S(=O)(=O)N2CCOCC2)c1 (stereo not drawn) 10.1%, CCCc1nc2ccccc2c(C(=O)OCC(=O)Nc2ccc(S(=O)(=O)N3CCOCC3)cc2)c1CC -0.325%, CCN(CCCNC(=O)C1c2ccccc2C(=O)N(CCOC)C1c1ccc(F)cc1)Cc1ccccc1 (stereo not drawn) 7.19%, CCN(CC(=O)Nc1ccccc1OC)CC(=O)Nc1sccc1C#N 1.28%, Cc1cc(C)c(S(=O)(=O)Nc2ccc(O)c(Sc3ncn[nH]3)c2)c(C)c1 -2.12%, COCCN(Cc1nc(-c2ccc(C(F)(F)F)cc2)no1)C(C)C -1.16%, O=C(c1ccc(Cl)cc1)c1cnc(Nc2ccccc2Cl)s1 -2.96%, CCN1CCN(CCNC(=O)c2ccc3c(c2)N(Cc2ccc(F)cc2)C(=O)/C(=C/c2ccccc2)S3)CC1 5.49%, COc1ccc(NC(=O)CSc2nc(C)c3c(c2C#N)CCCC3)cc1 8.35%
